Measured values as given in the supplement of paper PMC3334620.
Over roughly 33,000 sequences, “E-score (-0.5 to 0.5)” has its median near -0.053; the highest 2% begin near 0.37. This is one part of the list.

Biological target: Hap1 (UniProt P0CE41)
Assay: PBM E-score (8-mer binding enrichment) (E-score (-0.5 to 0.5)); higher = stronger / more preferred TF binding; most listed sequences are background and not binding sites
Conditions: protein concentration: 200 nM; construct: GST-DNA-binding domain
Procedure, shortened: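 Universal all-10-mer Agilent arrays, fresh or stripped once, were converted to double-stranded form by primer extension. GST-tagged yeast transcription factors from PURExpress in vitro transcription/translation, full-length or DNA-binding domain only, were applied at about 100-200 nM and detected with fluorescent anti-GST. After masliner normalisation, the Universal PBM Analysis Suite scored each ungapped eight-base word together with its reverse complement by E-score.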

Chain of UniProt P0CE41 (P0CE41 whole entry): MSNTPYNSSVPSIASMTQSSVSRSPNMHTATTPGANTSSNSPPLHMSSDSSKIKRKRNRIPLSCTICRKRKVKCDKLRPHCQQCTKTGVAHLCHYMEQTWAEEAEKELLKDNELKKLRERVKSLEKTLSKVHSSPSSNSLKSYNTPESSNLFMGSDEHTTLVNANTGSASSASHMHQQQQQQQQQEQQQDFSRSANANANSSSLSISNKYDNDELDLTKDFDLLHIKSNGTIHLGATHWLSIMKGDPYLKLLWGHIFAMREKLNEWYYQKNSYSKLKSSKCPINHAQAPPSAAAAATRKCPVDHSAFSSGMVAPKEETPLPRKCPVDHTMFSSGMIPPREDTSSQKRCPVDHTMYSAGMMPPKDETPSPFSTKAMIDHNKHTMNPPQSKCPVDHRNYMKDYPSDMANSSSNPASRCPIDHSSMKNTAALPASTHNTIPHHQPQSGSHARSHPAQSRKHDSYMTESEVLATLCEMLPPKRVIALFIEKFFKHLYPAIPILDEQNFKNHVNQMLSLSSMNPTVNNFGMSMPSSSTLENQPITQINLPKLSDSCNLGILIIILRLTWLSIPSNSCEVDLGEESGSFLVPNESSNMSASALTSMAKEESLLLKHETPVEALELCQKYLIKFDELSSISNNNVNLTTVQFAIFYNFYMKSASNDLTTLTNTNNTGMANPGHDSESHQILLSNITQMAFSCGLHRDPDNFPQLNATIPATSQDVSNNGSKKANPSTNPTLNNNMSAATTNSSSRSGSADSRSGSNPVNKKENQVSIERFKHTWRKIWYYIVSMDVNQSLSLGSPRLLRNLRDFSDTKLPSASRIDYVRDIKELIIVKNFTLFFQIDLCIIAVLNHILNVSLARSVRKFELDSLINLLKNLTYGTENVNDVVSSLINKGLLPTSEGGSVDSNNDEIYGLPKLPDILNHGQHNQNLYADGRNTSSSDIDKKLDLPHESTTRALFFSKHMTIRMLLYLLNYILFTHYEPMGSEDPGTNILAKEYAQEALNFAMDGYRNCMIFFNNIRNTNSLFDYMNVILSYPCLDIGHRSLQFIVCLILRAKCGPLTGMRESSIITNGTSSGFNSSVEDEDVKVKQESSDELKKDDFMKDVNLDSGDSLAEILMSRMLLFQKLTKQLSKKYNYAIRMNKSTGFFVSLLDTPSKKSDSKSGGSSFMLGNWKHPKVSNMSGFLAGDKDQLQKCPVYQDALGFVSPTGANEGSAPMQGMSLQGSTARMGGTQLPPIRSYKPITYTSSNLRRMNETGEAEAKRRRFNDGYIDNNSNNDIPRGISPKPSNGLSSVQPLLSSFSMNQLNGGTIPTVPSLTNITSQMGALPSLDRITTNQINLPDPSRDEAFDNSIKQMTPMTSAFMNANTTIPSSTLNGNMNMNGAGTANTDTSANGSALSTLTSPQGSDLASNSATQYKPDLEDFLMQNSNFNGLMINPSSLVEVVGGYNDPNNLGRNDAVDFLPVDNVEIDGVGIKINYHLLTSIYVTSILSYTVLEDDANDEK

Sequence	PBM E-score
GCACCAGA	-0.207
AGCCGCAA	0.0534
CCGCTTTC	0.0385
CACGTAAG	-0.153
CCGCTGTC	0.156
AAGCCTGC	-0.0231
ATTGACAA	-0.118
TATACCGA	0.289
CCAGCAAA	-0.0904
AAATTTGC	-0.0874
AAATACTA	-0.0697
ACCTAGCG	-0.0103
AGGGGCGG	0.235
ATAGCTGG	0.0193
CAATAGGG	-0.133
CGAGTCCC	0.182
ACATTGTC	0.138
AAACCCAC	0.147
ATAATCAG	-0.0499
CATGGGTA	-0.172
CGTATGAC	-0.112
GTCTGGTA	-0.161
GATGAAGC	-0.00464
GGCTCGAA	-0.0746
TCTACCCA	-0.144

Sequence	PBM E-score
GAGGACCC	0.0332
ACCATAGC	-0.223
ACACGTTA	-0.267
AAAAATTC	-3e-05
AAAAGCAC	-0.0705
CACGTGCG	-0.0329
CACCTCCA	-0.206
TAACAACA	-0.0513
CTTGTTGC	-0.107
ATTAGCCG	0.154
CTCAAGAG	-0.275
AGCTCTAA	-0.0231
AGCATGCA	-0.236
AGACACCT	-0.0515
CACTAATA	-0.0188
CCTTACCG	0.232
ATATTGTA	-0.163
ATGTAGAC	-0.198
ATAGTTAG	0.0318
GTATTGTA	0.0635
TAGGATGA	0.00251
ATAGTACG	0.0477
ATTGGACA	-0.0833
CAATGATC	-0.152
AAGCCAAG	-0.0638

Sequence	PBM E-score
CATCGATG	-0.174
CACACGGA	0.239
GGGCTACC	-0.174
CTGCGACA	0.14
AGATTAAC	-0.0886
ATACCAGG	-0.133
CCACGGGC	0.0914
ACGCAGAA	-0.0372
ACAATTGA	-0.193
GTTTAAGA	0.098
ACCGCAGC	0.0993
CTCTCAGC	-0.316
AGTTTGAA	0.0865
CCCGCTCG	0.127
CCAGGATC	-0.0644
ATCACTCG	-0.192
AGCTGCAG	-0.0155
GTTTTAGA	0.00012
CCTAAAGG	-0.154
AGCAGGTC	0.0873
AGACTGCA	-0.292
AACAGGAA	-0.241
CATCTGTC	-0.0784
CCAGTCCA	-0.15
CCCAAATC	-0.0854

Sequence	PBM E-score
CCACTACC	0.073
CCTCCGAC	0.28
GGAGCGCC	0.0877
CTAACACA	-0.0972
CCCGAGCC	0.366
ATGTTAGA	-0.336
CTATTATA	-0.0331
AAGCACTA	-0.167
CACTAGGA	-0.221
TATTGGCA	-0.102
GCTCCTTA	0.0409
TCGCCCCA	-0.255
AACTACGA	-0.136
AAGACGGA	0.0717
TATCTGAA	-0.107
CTCGACCC	-0.0169
GAAGAGAA	-0.00656
ATAGGAGC	0.0199
AATTTCGA	-0.0634
GTAGATTA	0.145
CTAGACAC	-0.138
CCTAATTC	-0.0554
ATAGGCTA	-0.167
AAAAACCG	0.24
TGCAGGAA	-0.097

Sequence	PBM E-score
CGGTGCAG	0.102
ACCTCTAC	-0.049
GGACCCCA	-0.0871
GAGAGGTA	-0.207
CAACTTTC	0.00732
CTCTTTGC	-0.193
AACAGTTC	-0.0474
GTTAACAA	0.0703
GTCGCACA	-0.13
GCGCCAAA	0.139
CCTCGGAC	0.39
ACTCGACG	-0.0125
GCCTCCGC	0.135
CCGATTAA	0.298
GCCGTCCC	0.182
AATACTTC	-0.104
CGTAACCC	0.156
ACATCGTC	-0.0858
CATTGTCC	0.185
AGATGCCT	-0.314
CAAATCAC	-0.188
AGTAAACG	0.00897
CGATGAAA	-0.0218
CATATGGG	0.0423
CACTAACC	0.0126

Sequence	PBM E-score
GACACCCC	-0.0457
AGGACAGC	-0.0413
CGAAGTGA	-0.102
ACAAGTGA	-0.141
GCGTACTA	-0.116
ATGAGCAA	-0.029
AAGACGAT	-0.233
AGCGCGCC	0.102
AGGGACCA	-0.257
GCTCCGCC	0.238
ACTGTTAG	-0.263
AGTCTACC	-0.0192
ACGTTCGG	0.289
GCACGAGC	-0.188
GCATAGAC	-0.19
AGAAACAT	-0.103
CTCAACTC	-0.0424
AGAAACTC	-0.00685
CCGGTCAC	0.173
CCAACGGA	0.266
AACGATCT	-0.146
ATACAGGA	0.0664
GCTACTCA	-0.144
AGCGCACT	-0.08
ACCATCGG	0.114

Sequence	PBM E-score
ACCGCGTA	0.193
GGAGCCCC	-0.0916
CAAAGAGC	-0.176
CTTTTCAA	-0.239
ATTCAGCA	-0.238
CGCCGAGC	0.364
CCTTGTGC	-0.214
GAGGTTAC	0.0291
TGCCCCAA	-0.176
CGTAGACA	-0.0803
GAAAATAC	0.105
AAATCATG	-0.195
CCGTAAAG	0.29
GGCGCCCA	-0.0481
CTGGTGGA	-0.17
GGGGGAAA	0.172
CTAAATGC	0.137
AAAGGGAA	-0.111
AACGAATG	-0.0933
CAGTATAC	0.06
CAAATACG	-0.203
CGGGGTTC	0.211
AGGTTGCA	-0.0972
ATCCGAGG	0.39
GATGGTTA	-0.0614

Sequence	PBM E-score
CAGACAAG	-0.109
AAATCGAA	-0.0885
CCAGGAGG	-0.106
CAGGCCAG	-0.152
CAACAGAA	-0.227
ATTAGAAG	-0.0841
AATCGATG	-0.153
AAAGGTAC	-0.123
TCCCCCGA	0.393
CATGTCAC	-0.14
ATACTGAG	-0.143
ATGCGAAG	-0.0416
CCAAAATA	-0.0289
AACATGCC	0.049
CCGCTACA	0.265
ATTACCAA	-0.0677
GCAAGTCC	0.0571
CTCGGGCA	0.321
CTTAGTGA	-0.0694
AGACCATA	0.0105
CGAGCCGA	0.191
ATGACTCC	0.0346
AAGGGCCG	0.23
GGTACCCA	-0.168
AGAAACCC	0.0915

Sequence	PBM E-score
TAATGTAA	-0.129
AGCAGCCA	-0.153
GACTTGAA	-0.00348
CCCTGAAG	-0.166
GCTTACAA	-0.179
AGCCTCGA	-0.329
AAAGGGAT	-0.336
AGAAAGCC	-0.0457
CGTTCTAC	-0.0529
ACCCGCGG	0.33
CTCTCCTC	-0.166
CAAGAAAA	-0.0212
CAATGGAG	-0.188
TACCCGCA	0.215
AGTCACCG	0.125
CGGTGGAC	0.159
CCTGGAGA	-0.237
GACATGGA	-0.0347
GATCGATC	-0.0786
CACTCGAG	-0.162
GATGTGAC	0.133
CCTCCTCC	-0.147
CAACTACA	-0.12
CCCTGGGA	-0.115
GCCAGCCA	-0.0457

Sequence	PBM E-score
ATGTACCA	-0.0474
GTGACCTA	-0.188
AAATCCGA	0.457
CGTGGTAG	-0.0899
CGCTGATC	0.252
CCTTGTAC	-0.239
CCCCATAC	0.0502
AGCTCAGG	-0.184
AGTTTTGG	-0.138
GGAACCAC	0.0946
CATCCAGG	-0.183
ATATACTC	0.0148
CACTATAA	-0.238
AAGCCGGC	0.399
AGCGTATA	-0.0432
CCAAGGTC	-0.0382
GCGGTCTA	0.0807
ACGCAGCT	-0.134
AGCAATTG	-0.033
ATCAAAAT	-0.25
GGTAGGAA	-0.121
AACGTTCA	-0.345
AGGGCATC	-0.311
CATGCGTA	-0.018
CCAAGAAA	-0.108

Sequence	PBM E-score
TGCACGCA	-0.106
AATACTAA	0.024
ATCTGATC	-0.0276
AAACAGAC	-0.0457
GGTGAATA	0.0285
ACGGACTA	0.237
CCGTCGCC	0.175
CGCTTAAG	0.0296
TAACCGAA	0.287
CGCAAAAG	-0.00606
TATTGCAA	0.127
CGTACCTA	-0.104
GGAAGCAC	0.00432
AGGGGAAT	0.0163
CGACTCAC	-0.0909
CATATCCC	0.109
CTAGAGAA	-0.207
CTTAGAGA	-0.183
TACCAGGA	0.191
AACCTCAG	-0.0137
AAGCAAGG	-0.0634
ATGTAGCA	0.0146
TAAAGTCA	-0.1
CAAAAGAC	-0.272
TTAGTGAA	-0.0313

Sequence	PBM E-score
ACTATATG	-0.236
AGAATCGG	0.282
CAAGGCCC	-0.0324
GAGGATGC	-0.0739
GATGCCCA	-0.113
GCATATAA	0.0302
CTCGCTCA	-0.028
CTGCCTTA	-0.208
ATCGGATA	0.404
CACATTGC	-0.126
CACCCTAC	-0.27
CTGGCGCC	0.0833
CGTGATCC	-0.0273
CTGAGCTC	0.00147
CGGGGAGA	0.11
CCCTAAAG	-0.0534
ATACGTGG	-0.184
GGTTTGAC	0.153
CGTAGAAG	-0.0489
TAAATCCA	0.071
CTTCATTC	-0.153
ACTACGAC	-0.078
ATATCTGG	0.12
CTCCGCAG	0.216
AATAAATC	0.102

Sequence	PBM E-score
CCTAATCC	0.00876
AAAAGGCG	-0.102
GATAAGGC	-0.00984
GAGTTGAA	0.0428
GTCCCCTA	-0.196
CTTCCCGC	0.0523
CATACGAA	-0.161
AGTGAACT	-0.0204
AGGGCCCA	-0.06
ACCCATCA	-0.195
AACTGGCT	-0.279
CGAAGGCC	0.191
AGAGCGGG	0.0695
CAGAGCAC	-0.0773
GGGGGCAC	-0.178
GATCTGGC	0.104
ATCGGTGG	0.215
ATCCGATG	0.277
ACTAAAGG	-0.181
ATTCACAA	0.0356
CCCCTTCC	-0.099
CGCACGCG	0.0664
GAATGGGC	0.0082
AGGTAGCA	-0.183
AGCAATAT	-0.105

Sequence	PBM E-score
AGAGTCAA	-0.174
GGTAATAA	0.294
CTAATTAC	0.0415
ACATGCTA	-0.182
CGAAGCCG	0.238
CATGGGAA	-0.0406
ATGTACGG	0.0736
CTTGTGGA	-0.273
CGCGTTTA	0.253
AAGGAGAC	-0.294
ACCATAGG	-0.281
CGAAGTCG	0.0997
GAGTTAGA	0.0347
AATAAAAA	-0.00889
GATGGTAA	-0.192
CGACGTCG	0.0423
GACAGAGA	-0.183
GATTATCA	0.0127
AGTTGGCG	0.0317
